From PubChem BioAssay (NCI)
Several values for one entry are separate records, joined by “and”; a condition that tells them apart may be missing. Identical values can stand only once.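 Five concentrations, 48 hours, 96-well plates. GI50 is the concentration that inhibits growth by half. TGI: concentration producing complete growth inhibition.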

The molecules below were run on NCI-H322M lung (assay: NCI tumour cell line growth inhibition, 48 h).
With `Cc1ccc(S(=O)(=O)C2=C(C(C)C)N=NC2(C)C)cc1` the TGI was greater than 100 µM.
With `O=C(NNc1cnccn1)c1nc2cc(F)ccc2n2cccc12` the GI50 was 0.59 µM and the TGI was greater than 100 µM.
Molecule `CN1CC=C(c2c(N)nc(N)[nH]c2=O)CC1` has a TGI greater than 100 µM.
For `Nc1c(C(=O)Nc2ccccc2Cl)sc2nc3c(cc12)C(=O)CCC3`, the GI50 was 3.02 µM and the TGI was greater than 100 µM.
In the case of `CN(C)CCCNc1ccc2ncn3c4ccc(O)cc4c(=O)c1c23`, the TGI is reported as 14.8 µM.
With `CCCCCCCCCCCC(=O)OC[C@@H](C[As](=O)(O)O)OC(=O)CCCCCCCCCCC` the TGI was 23.1 µM.
For `OC(C/C=N/N=C/CC(O)(C(F)(F)Cl)C(F)(F)Cl)(C(F)(F)Cl)C(F)(F)Cl`, the TGI was greater than 10 µM.
Work on `O=C1C(Br)=CC2(C=C1Br)CCNC1=C2C(=O)c2ncccc2C1=O` yielded a TGI of 2.85 µM.
`NCCN.O=C([O-])[O-].O=C([O-])[O-].[Co+3].[K+]` was tested, and the GI50 was greater than 100 µM and the TGI was greater than 100 µM.
In the case of `CC(=O)OCC1OC(n2c(C)c(N=Nc3ccc(Cl)cc3)c(C)c(C#N)c2=S)C(OC(C)=O)C(OC(C)=O)C1OC(C)=O` (stereo not given), the TGI is reported as greater than 100 µM.
`CS(=O)(=O)N1CC(CCl)c2ccc(O)cc21` (stereo not given) showed a TGI of 25.6 µM.
`O=C1C2[C@@H](C(=O)N1c1ccc(Br)cc1)C13C(=CC2([N+](=O)[O-])[C@@H]2C(=O)N(c4ccc(Br)cc4)C(=O)[C@@H]21)c1ccccc1N3c1ccccc1` (stereo not given in full) was tested, and the TGI was greater than 100 µM.
Molecule `COc1ccc(CNc2nc(NC3CCCCC3)nc(NC3CCCCC3)n2)cc1` has a TGI greater than 100 µM.
In the case of `c1ccc2c3[nH]c(c2c1)=Nc1ccc(cc1)-c1nc2ccc(cc2o1)N=c1[nH]c(c2ccccc12)=Nc1ccc2nc(oc2c1)-c1ccc(cc1)N=3`, the TGI is reported as greater than 100 µM.
`O=C1c2ccccc2C(=O)c2c(NCCN=Cc3ccccc3O)cccc21` was tested, and the GI50 was 2.17 µM and the TGI was 6.95 µM.
Work on `CCOC(=O)c1ccc(-c2ccc(Cl)cc2)[nH]1` yielded a TGI greater than 10 µM.
Work on `Cc1c(Cl)cccc1NC(=O)c1cccc([N+](=O)[O-])c1O` yielded a TGI greater than 85.4 µM.
With `N[C@H](Cc1ccc2oc3cc(=O)c4ccccc4c-3nc2c1)C(=O)O` the TGI was greater than 100 µM.
`COc1cc2c3c(n(CCCN(C)CCO)c(=O)c2cc1OC)-c1cc2c(cc1C3=O)OCO2` gave a GI50 of 21 µM and a TGI of 98.6 µM.
`CCOc1ccc(N=Cc2c3ccccc3nc3ccccc23)cc1` was tested, and the TGI was greater than 100 µM.
For `CCC(=O)OCN(C)c1nc(N(C)COC(=O)CC)nc(N(C)COC(=O)CC)n1`, the TGI was greater than 100 µM.
`O=C(CBr)c1ccc2cc(Br)c3ccccc3c2c1` was tested, and the TGI was 71.3 µM.
`Cc1ccc2c(c1-c1ccccc1)C(=O)OC2` showed a TGI greater than 100 µM.
In the case of `CN1CCc2c(sc3[nH]c(=S)[nH]c(=S)c23)C1`, the TGI is reported as greater than 100 µM.
For `CC(NC(=O)c1c(O)[nH]c(=S)[nH]c1=O)c1ccc([N+](=O)[O-])cc1` (stereo not given), the TGI was greater than 100 µM.
In the case of `C=CCCC1(C)CCCNC1=S` (stereo not given), the TGI is reported as greater than 100 µM.
For `C=C1CCCCCCCCC/C=C/1SCCCSC`, the TGI was greater than 100 µM.
`Cc1cc(C)nc(NC(P(=O)(O)O)P(=O)(O)O)n1` showed a TGI greater than 100 µM.
Work on `CCOC(=O)C1=C(N)Oc2c(sc3c(C)cccc23)C1c1ccc(F)cc1` (stereo not given) yielded a GI50 of 6.47 µM and a TGI of 22.2 µM.
Molecule `COC(=O)C1=C(OC)[C@H]2C#C/C=C\C#C[C@@H]3Nc4c(cc(O)c5c4C(=O)c4ccccc4C5=O)[C@]24O[C@@]34[C@H]1C` has a TGI of 0.0438 µM.
`COc1ccc2c(c1)C(C)Cc1c(ncnc1-n1cnc3ccccc31)N2C` (stereo not given) was tested, and the GI50 was 0.749 µM and the TGI was 25 µM.
`CC1(C)N=C(N)N=C(N)N1c1cccc(OCCOc2cccc([N+](=O)[O-])c2)c1` gave a GI50 of 5.22 µM and a TGI greater than 100 µM.
For `C=CCn1c(SCC(=O)Nc2ccc(C(=O)/C=C/c3cc(OC)c(OC)c(OC)c3)cc2)nnc1-c1ccc(OC)cc1`, the GI50 was 1.17 µM and the TGI was greater than 20.6 µM.
Molecule `O=C(N/N=C/c1ccc(O)cc1O)c1cccnc1` has a GI50 of 2.26 µM and a TGI of 56.9 µM.
With `Cn1nnnc1SC(F)(F)c1nc2ccccc2o1` the TGI was greater than 100 µM.
`COc1ccc(N2C(=O)C(=O)N(c3ccc(N=Nc4ccccc4)cc3)C2=S)cc1` was tested, and the TGI was 53.6 µM.
Work on `NCCCOc1cc(Cl)ccc1NC(=O)c1cc2ccccc2cc1OCCCN` yielded a GI50 of 1.39 µM and a TGI of 2.89 µM.
Work on `CC(=O)SC(C[N+](=O)[O-])c1ccc2c(c1)OCO2` (stereo not given) yielded a TGI of 31 µM.
Molecule `Cc1c2c(C(N)=O)nccc2c(C)c2c1c1ccccc1n2Cc1ccccc1` has a TGI of 39.8 µM.
`C=C1CC[C@H]2C(=O)OC(c3ccoc3)C[C@]2(C)C/C=C\C=C/1C(=O)OC` (stereo not given in full) gave a TGI greater than 25 µM.
With `COc1cc(/C=C/C(=O)C(C(=O)/C=C/c2ccc(OC(=O)CCNC34CC5CC(CC(C5)C3)C4)c(OC)c2)C(=O)CCNC23CC4CC(CC(C4)C2)C3)ccc1OC(=O)CCNC12CC3CC(CC(C3)C1)C2` (stereo not given) the GI50 was 12.8 µM and the TGI was 26.2 µM.
For `CC1CCC(C(C)(C)c2ccccc2)C(=O)C1` (stereo not given), the TGI was greater than 100 µM.
Molecule `CC(=O)OC(CCC1(C)OC1COc1ccc(CCNC(=O)C=C(C)C)cc1)C(C)(C)OC(C)=O` (stereo not given) has a TGI greater than 100 µM.
In the case of `CCC1CC(O)c2c(O)c3c(c(O)c2C1O)C(=O)c1cccc(O)c1C3=O` (stereo not given) (tested in a mixture with another compound), the TGI is reported as 0.132 µM and 0.124 µM.
`CC(=O)NC1CONC1=O` (stereo not given) showed a TGI greater than 100 µM.
For `CCOC(=O)C(Cc1ccc(O)cc1)Nc1nc(=O)c2c(=O)oc(Cl)cc2o1` (stereo not given), the TGI was 36 µM.
With `COc1cc(Nc2nc3cc(C(F)(F)F)ccc3nc2C(=O)O)cc(OC)c1OC` the TGI was greater than 100 µM.
For `Cc1cc(NCCCCNc2ccnc3cc(Cl)ccc23)nc(Nc2ccc(C(=O)N3CCCCC3)cc2)n1`, the GI50 was 2.08 µM and the TGI was 6.77 µM.
`COc1cc(/C=N\O[Si](C)(C)C(C)(C)C)ccc1O[Si](C)(C)C(C)(C)C` was tested, and the TGI was greater than 100 µM.
`Cn1c(=S)c2[nH]c(SCCCc3ccccc3)nc2n(C)c1=O` was tested, and the TGI was greater than 100 µM.
Molecule `N#CC(C#N)=C1CCCOc2c1ccc1ccccc21` has a GI50 greater than 100 µM and a TGI greater than 100 µM.
`CS(=O)(=O)CS(=O)(=O)OCCCl` was tested, and the TGI was 1030 µM.
`c1ccc2c(c1)Nc1cccc3c1c-2nc1ccccc13` gave a TGI of 2.42 µM.
`NCCCn1c2c(c3ccccc3c1=O)C(=O)c1ccccc1-2` was tested, and the GI50 was 0.382 µM and the TGI was 2.68 µM.
`C1=NC(N(Cc2ccccc2)Cc2ccccc2)N(Cc2ccccc2)N1` (stereo not given) gave a TGI of 39.3 µM.
For `CNCCn1c(=O)c2cc(OC)c(OC)cc2c2cnc3cc4c(cc3c21)OCO4`, the GI50 was 0.0358 µM and the TGI was 1.49 µM.
Molecule `CN1CCN(/C(N)=C(\C#N)C(=O)Nc2ccc(Cl)cc2)CC1` has a TGI greater than 100 µM.
For `Oc1ccc(/C=C/c2cc(O)cc3c2C(c2cc(O)cc(O)c2)C(c2ccc(O)c(O)c2)O3)cc1` (stereo not given), the TGI was greater than 100 µM.
`CC1=NC(C)(COC(=O)C2(C)NC(C)(CO)CO2)COC1=O` (stereo not given) showed a TGI greater than 100 µM.
`O=C1CC(=O)NC(=NN2C(=O)/C(=C/c3ccc(Cl)c(Cl)c3)N=C2c2ccccc2)N1` showed a TGI greater than 100 µM.
In the case of `Nc1c(S(=O)(=O)c2ccccc2)c2nc3ccccc3nc2n2c1nc1ccccc12`, the TGI is reported as greater than 100 µM.
`CCCCCCCCCCCCCCCCCCC1=C(O)C(=O)C=C(OC)C1=O` showed a TGI greater than 100 µM.
With `Cc1ccc(N2C(=O)N(c3ccc(C)cc3)C3(SC=NN3C)C2=O)cc1` (stereo not given) the TGI was greater than 100 µM.
`Clc1nc(Cl)c2ncn(Cc3ccccc3Cn3cnc4c(Cl)nc(Cl)nc43)c2n1` showed a GI50 of 6.4 µM and a TGI of 20.2 µM.
Work on `C=C1C(=O)OC2C1CC(OC(C)=O)/C(C)=C/CCC1(C)OC21` (stereo not given) yielded a TGI greater than 100 µM.
`COc1cc(/C=C/C(=O)Oc2ccccc2)ccc1C(=O)O/C=C/c1ccccc1` was tested, and the TGI was greater than 100 µM.
Molecule `NCCCNCCCCN1CCOC1=O` has a TGI greater than 100 µM.
`COc1cccc(CC(=O)N2CCN(CCCc3ccccc3)CC2)c1` was tested, and the TGI was greater than 100 µM.
`COc1cc(C(=O)O[C@H](C(N)=O)[C@]2(C)CO2)c2cccc(C)c2c1` showed a GI50 of 0.409 µM and a TGI of 3.49 µM.
`COc1cccc(-c2nc(-c3cnccn3)n(C/C=C/c3ccccc3)n2)c1` was tested, and the TGI was greater than 10 µM.
`CCCCC1Cc2cc(O)ccc2-c2nc3cc(O)ccc3n21` (stereo not given) (tested in a mixture with another compound) gave a TGI of 78.7 µM.
`O=Cc1ccc(-c2ccc(-c3ccc(CO)s3)o2)s1` was tested, and the TGI was 99.8 µM.
